Source: the supplement of paper PMC8728848
The list shows a part of the results.

Tests used:
Experiment in all cases: glycan array binding signal (z-score within array); higher = stronger binding
Conditions in all cases: glycan notation: IUPAC condensed, linker removed
[1] = molecular target: Man(a1-2)Man(a1-3)[Man(a1-2)Man(a1-6)]Man(a1-6)[Man(a1-2)Man(a1-2)Man(a1-3)]Man
Summary of the method: (§1)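 Arrays were curated from the Consortium for Functional Glycomics database, 3228 in total, and kept only where the protein sequence was available. Binding is expressed as a within-array Z-score. This score was averaged across arrays of the same protein sequence at different concentrations or buffers and across linkers, and negative values can be read as non-binding.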

[2] = molecular target: Man(a1-2)Man(a1-3)[Man(a1-2)Man(a1-6)]Man(a1-6)[Man(a1-2)Man(a1-2)Man(a1-3)]Man(b1-4)GlcNAc(b1-4)GlcNAc
Summary of the method: as §1

[3] = molecular target: Man(a1-2)Man(a1-3)[Man(a1-6)]Man(a1-6)[Man(a1-2)Man(a1-3)]Man(b1-4)GlcNAc(b1-4)GlcNAc
Summary of the method: as §1

[4] = molecular target: Man(a1-2)Man(a1-6)[Man(a1-3)]Man(a1-6)[Man(a1-2)Man(a1-2)Man(a1-3)]Man
Summary of the method: as §1

[5] = molecular target: Man(a1-2)Man(a1-6)[Man(a1-3)]Man(a1-6)[Man(a1-2)Man(a1-2)Man(a1-3)]Man(b1-4)GlcNAc(b1-4)GlcNAc
Summary of the method: as §1

[6] = molecular target: Man(a1-3)[Man(a1-6)]Man
Summary of the method: as §1

[7] = molecular target: Man(a1-3)[Man(a1-6)]Man(a1-6)[Man(a1-2)Man(a1-3)]Man(b1-4)GlcNAc(b1-4)GlcNAc
Summary of the method: as §1

[8] = molecular target: Man(a1-3)[Man(a1-6)]Man(a1-6)[Man(a1-3)]Man
Summary of the method: as §1

[9] = molecular target: Man(a1-3)[Man(a1-6)]Man(a1-6)[Man(a1-3)]Man(b1-4)GlcNAc(b1-4)GlcNAc
Summary of the method: as §1

[10] = molecular target: Man(a1-3)[Man(a1-6)]Man(b1-4)GlcNAc(b1-4)GlcNAc
Summary of the method: as §1

[11] = molecular target: Man(a1-3)[Man(a1-6)]Man(b1-4)GlcNAc(b1-4)[Fuc(a1-6)]GlcNAc
Summary of the method: as §1

[12] = molecular target: Man(a1-6)Man
Summary of the method: as §1

[13] = molecular target: Man(b1-4)GlcNAc
Summary of the method: as §1

[14] = molecular target: MurNAc(b1-4)GlcNAc
Summary of the method: as §1

[15] = molecular target: Neu5Ac(a2-3)Gal
Summary of the method: as §1

[16] = molecular target: Neu5Ac(a2-3)Gal(b1-3)GalNAc
Summary of the method: as §1

[17] = molecular target: Neu5Ac(a2-3)Gal(b1-3)GalNAc(b1-3)Gal(a1-4)Gal(b1-4)Glc
Summary of the method: as §1

[18] = molecular target: Neu5Ac(a2-3)Gal(b1-3)GalNAc(b1-4)Gal(b1-4)Glc
Summary of the method: as §1

[19] = molecular target: Neu5Ac(a2-3)Gal(b1-3)GalNAc(b1-4)[Neu5Ac(a2-3)]Gal(b1-4)Glc
Summary of the method: as §1

[20] = molecular target: Neu5Ac(a2-3)Gal(b1-3)GalNAc(b1-4)[Neu5Ac(a2-8)Neu5Ac(a2-3)]Gal(b1-4)Glc
Summary of the method: as §1

[21] = molecular target: Neu5Ac(a2-3)Gal(b1-3)GalNAc6S
Summary of the method: as §1

[22] = molecular target: Neu5Ac(a2-3)Gal(b1-3)GlcNAc
Summary of the method: as §1

[23] = molecular target: Neu5Ac(a2-3)Gal(b1-3)GlcNAc(b1-2)Man
Summary of the method: as §1

[24] = molecular target: Neu5Ac(a2-3)Gal(b1-3)GlcNAc(b1-2)Man(a1-3)[GlcNAc(b1-4)][Neu5Ac(a2-3)Gal(b1-3)GlcNAc(b1-2)Man(a1-6)]Man(b1-4)GlcNAc(b1-4)GlcNAc
Summary of the method: as §1

[25] = molecular target: Neu5Ac(a2-3)Gal(b1-3)GlcNAc(b1-2)Man(a1-3)[Neu5Ac(a2-3)Gal(b1-3)GlcNAc(b1-2)Man(a1-6)]Man(b1-4)GlcNAc(b1-4)GlcNAc
Summary of the method: as §1

[26] = molecular target: Neu5Ac(a2-3)Gal(b1-3)GlcNAc(b1-2)[Neu5Ac(a2-3)Gal(b1-3)GlcNAc(b1-4)]Man(a1-6)[Neu5Ac(a2-3)Gal(b1-3)GlcNAc(b1-2)Man(a1-3)]Man(b1-4)GlcNAc(b1-4)GlcNAc
Summary of the method: as §1

[27] = molecular target: Neu5Ac(a2-3)Gal(b1-3)GlcNAc(b1-3)Gal(b1-3)GlcNAc
Summary of the method: as §1

[28] = molecular target: Neu5Ac(a2-3)Gal(b1-3)GlcNAc(b1-3)Gal(b1-4)GlcNAc
Summary of the method: as §1

[29] = molecular target: Neu5Ac(a2-3)Gal(b1-3)GlcNAc(b1-3)GalNAc
Summary of the method: as §1

[30] = molecular target: Neu5Ac(a2-3)Gal(b1-3)GlcNAc(b1-6)GalNAc
Summary of the method: as §1

[31] = molecular target: Neu5Ac(a2-3)Gal(b1-3)GlcNAc6S
Summary of the method: as §1

[32] = molecular target: Neu5Ac(a2-3)Gal(b1-3)[Fuc(a1-4)]GlcNAc
Summary of the method: as §1

[33] = molecular target: Neu5Ac(a2-3)Gal(b1-3)[Fuc(a1-4)]GlcNAc(b1-3)Gal(b1-3)[Fuc(a1-4)]GlcNAc
Summary of the method: as §1

[34] = molecular target: Neu5Ac(a2-3)Gal(b1-3)[Fuc(a1-4)]GlcNAc(b1-3)Gal(b1-4)[Fuc(a1-3)]GlcNAc
Summary of the method: as §1

[35] = molecular target: Neu5Ac(a2-3)Gal(b1-3)[GlcNAc(b1-6)]GalNAc
Summary of the method: as §1

[36] = molecular target: Neu5Ac(a2-3)Gal(b1-3)[Neu5Ac(a2-6)]GalNAc
Summary of the method: as §1

[37] = molecular target: Neu5Ac(a2-3)Gal(b1-3)[Neu5Ac(a2-6)]GlcNAc(b1-3)[Fuc(a1-3)[Gal(b1-4)]GlcNAc(b1-6)]Gal(b1-4)Glc
Summary of the method: as §1

B1: Pwp4 (Candida glabrata) (protein)
chain: MGSSHHHHHHSSGLVPRGSHMASVGNPITVSNVCSFPKNWHRTAGFRALTARLGIGIQSDSYKELLNYPGTFQLTTQQSSTTKPNFQISGLVGNIYGLTIVPSYLLVELTGYFVPPVSGEYTFSLEGSDDAAIIFIANPSTFKCGHVEDWPTAYDNDVTVTESIHATRTIYMIEGVAYPIRIAYYNGLSLGKLQASFTDPEGVKRVDWNGYIWRYDSCDTCSYV
glycan array binding signal (z-score) [1]: -0.159
glycan array binding signal (z-score) [2]: -0.193
glycan array binding signal (z-score) [3]: -0.58
glycan array binding signal (z-score) [4]: -0.523
glycan array binding signal (z-score) [5]: -0.373
glycan array binding signal (z-score) [6]: -0.546
glycan array binding signal (z-score) [7]: -0.235
glycan array binding signal (z-score) [8]: 0.799
glycan array binding signal (z-score) [9]: -0.094
glycan array binding signal (z-score) [10]: 0.474
glycan array binding signal (z-score) [11]: 0.529
glycan array binding signal (z-score) [12]: -0.868
glycan array binding signal (z-score) [13]: -0.403
glycan array binding signal (z-score) [14]: -0.449
glycan array binding signal (z-score) [15]: 0.361
glycan array binding signal (z-score) [16]: 0.985
glycan array binding signal (z-score) [17]: -0.123
glycan array binding signal (z-score) [18]: 1.86
glycan array binding signal (z-score) [19]: -0.275
glycan array binding signal (z-score) [20]: 1.36
glycan array binding signal (z-score) [21]: -0.345
glycan array binding signal (z-score) [22]: -0.607
glycan array binding signal (z-score) [23]: -0.557
glycan array binding signal (z-score) [24]: 0.277
glycan array binding signal (z-score) [25]: -0.164
glycan array binding signal (z-score) [26]: -0.334
glycan array binding signal (z-score) [27]: -0.683
glycan array binding signal (z-score) [28]: -0.596
glycan array binding signal (z-score) [29]: -0.305
glycan array binding signal (z-score) [30]: -0.39
glycan array binding signal (z-score) [31]: -0.165
glycan array binding signal (z-score) [32]: 0.218
glycan array binding signal (z-score) [33]: -0.423
glycan array binding signal (z-score) [34]: -0.286
glycan array binding signal (z-score) [35]: 3.89
glycan array binding signal (z-score) [36]: -0.221
glycan array binding signal (z-score) [37]: -0.453
